Test results from PubChem BioAssay AID493208 (National Center for Advancing Translational Sciences (NCATS), 2011).
Hit rate of the full screen: of about 44,000 compounds, about 340 (0.77%) were called active. Roughly 5% stayed inconclusive and do not appear here. Calls follow the shape of the dose curve; as a rule, active = well fitted inhibition curve with a large enough effect; inconclusive = small, poorly fitted or top-dose-only effect; inactive = flat fitted curve, though single readings scatter. Some of the results follow.

Test: Acumen qHTS Assay for Inhibitors of the mTORC1 Signaling Pathway in MEF (Tsc2-/-, p53-/-) Cells: Sytravon; also: nearly all actives have a fitted effect of over 50% in size
Conditions: phospho-rpS6 immunofluorescence/PI, 24 h; series mostly up to 38.3 µM; activity change, negative = inhibition: at the top concentration
Source text: NIH Molecular Libraries Probe Production Centers Network [MLPCN] NIH Chemical Genomics Center [NCGC] MLPCN Grant: NS059428-01 Assay Submitter (PI): Blenis, John; Hoffman, Greg; Harvard University NCGC Assay Overview: The mammalian target of rapamycin (mTOR) is an intracellular serine/threonine kinase Aberrant regulation of mTOR signaling plays a causative role in a number of human diseases, including cancer, benign tumors such as lymphangioleiomyomatosis (LAM) and Tuberous Sclerosis Complex (TSC), and metabolic diseases such as diabetes and obesity. This project aims to identify inhibitors of ribosomal protein S6 (rpS6) phosphorylation. The phosphorylation of rpS6 is a key event downstream of mTOR activation. The assay uses a phospho-specific antibody of phospho-rpS6 to detect inhibitors of mTOR activation. Mutations in the Tsc1 and Tsc2 genes are the underlying genetic lesions responsible for TSC, causing constitutive activation of the mTORC1 pathway and leading to profound effects on cell metabolism. Aberrant metabolism in cancer has recently received significant attention as a target to develop therapeutic agents in the treatment of cancer.1 As Tsc2-/- cells have lost the ability to respond to energy and growth factor deprivation, these cells are unable to properly down regulate cellular biosynthetic processes in response to metabolic stress, and are thus extremely sensitive to glucose deprivation-induced death.2 A central goal of this project is to explore the unique cell survival and metabolic properties of cells with Tsc1 or Tsc2 by screening for compounds that selectively target the Tsc2-/- MEFs by screening both Tsc2-/- and WT MEF cell lines. We hope to better understand these aspects of TSC physiology in order to exploit them for therapeutic benefit.
NCGC Acumen Assay Protocol Summary: For quantitative high throughput analysis of mTORC1 signaling, we developed a cell-based assay for immuno-fluorescence based detection of rpS6 phosphorylation on the Acumen Explorer that will be used a platform for the primary small molecule screen. Mouse embryonic fibroblasts (MEFs) are cultured in 1536-well plates using DMEM + 10% FBS. Twenty-four hrs after plating, test compounds (solubilized in DMSO) are delivered and incubated with the cells for 24 hrs at 37 degree Celsius. Following the incubation, media with compound is aspirated and the cells are fixed in 4% paraformaldehyde (PFA) containing PBS + 0.2% TX-100. Next, PFA is aspirated, cells are washed two times with PBS plus 0.2% TX-100 and the cells are blocked for 1 hr at room temperature (blocking buffer: LiCOR Blocking Buffer plus 0.2% TX-100). […] Cells are washed two times with PBS plus 0.2% TX-100, and stained with 10 uM propidium iodide (PI) for 20-25 minutes for cell number measurement (1:500 dilution of Hoescht staining is also added for IN Cell imaging). The plates are scanned on the Acumen Explorer laser scanning instrument (TTP Labtech) using the 488nm laser for simultaneous excitation of the Alexa-488 and PI. […] The normalized phospho-S6 staining is calculated as the ratio of the integrated Alexa 488 intensity divided by the integrated PI intensity for the single concentration rapamycin control (7.5 nM) and DMSO columns. […] Inhibition of the pathway is defined based on the normalized phospho-S6 intensity in rapamycin treated cells. Active cells are defined as those with a normalized phospho-S6 staining above this threshold, and each treatment is reported as the % positive cells in the well, where thresholds are defined by selecting wells with the highest and lowest signal and differentiating between the % non-active and % active populations. In addition to the pathway specific phospho-S6 endpoint, the number of PI stained cells from the Acumen is recorded as a measure of cell viability. The primary screen was performed with a MEF cell line in a defined genetic background, Tsc2-/-, p53-/- cell line stably transfected with an empty vector control (Tsc2-/- MEF).

Activity change, negative = inhibition, inactive:
CCN(C(=O)Cn1c(SCc2ccccc2F)nc2cccnc21)c1ccccc1 2.44%, O=C(C1COc2ccccc2O1)N(Cc1cccnc1)c1nc2ccc(F)cc2s1 (stereo unspecified) -1.71%, O=C(CSCc1nc2cccnc2n1C1CCCCC1)NCc1cccc(Br)c1 -0.858%, O=C(OCc1ccccc1)c1ccc(-c2nnn(Cc3ccccc3F)n2)cc1 3.11%, CCOc1ccc(CCNC(=O)c2ccc3[nH]c(C)c(C)c3c2)cc1 -3.81%, Cc1ccc2scc(N3CCN(c4ccccc4)CC3)c(=O)c2c1 -0.684%, O=C(Cn1c(=O)oc2ccccc21)NCc1ccccc1Cl -0.573%, O=C(CSc1nc(-c2ccco2)nc2cc(=O)[nH]n12)Nc1ccccc1Cl -22.6%, COc1ccc(-n2c(-c3ccc(F)cc3)cn3c4c(=O)n(C)c(=O)n(C)c4nc23)cc1 5.72%, CCOc1ccc2ncc3c(-c4ccccc4)nn(CC(=O)Nc4cccc(F)c4)c3c2c1 -6.82%, COc1ccccc1CNC(=O)Cn1c(=O)oc2ccccc21 3.27%, O=C(CSc1nc2c(c(=O)[nH]1)CCCC2)Nc1cccc(O)c1 1.7%, COc1cc2[nH]c(=O)n(CCCC(=O)NCc3ccccc3Cl)c(=O)c2cc1OC -1.2%, COCCCNC(=O)C1CCN(c2nnc(-n3cccc3CNc3ccc(C)cc3)s2)CC1 0.215%, COC(=O)c1ccccc1NC(=O)CSc1nc2sc3c(c2c(=O)[nH]1)CCCC3 -1.7%, O=C(CN1C(=O)C2CCCCN2c2ccc(C(=O)N3CCCC3)cc21)NCc1ccccc1 (stereo unspecified) 0%, COCCCNC(=O)Cn1c(=O)n(-c2cccc(C)c2)c(=O)c2c3c(sc21)CN(C(C)=O)CC3 -5.94%, COc1ccccc1CNc1nc(-c2ccco2)nn1C(=O)c1ccccc1[N+](=O)[O-] -8.18%, CCCCn1c(CCNC(=O)c2ccc(F)cc2)nc2ccccc21 2.71%, COc1cccc(CNC(=O)Cn2cc3c(n2)-c2c(oc(C(=O)N4CCOCC4)c2C)CC3)c1 -6.9%, COc1ccc(S(=O)(=O)N2Cc3ccccc3CC2C(=O)Nc2cccc(C)c2)cc1OC (stereo unspecified) -15.6%, Cc1cc(=O)n2c(C(=O)Nc3ccc(C)c(C)c3)c(C(=O)Nc3ccccc3)sc2n1 -4.15%, CN(C)c1ccc(CNc2nc(-c3ccco3)nn2S(=O)(=O)c2ccc(Cl)cc2)cc1 -2.2%, CCN(C(=O)CSc1nnc(-c2ccc(Cl)cc2)o1)c1ccccc1 -0.259%, CCc1cccc(C)c1NC(=O)C1CCCN(S(=O)(=O)c2cccc3nsnc23)C1 (stereo unspecified) 2.83%, Cc1ccc2nc(N3CCN(C(=O)C4COc5ccccc5O4)CC3)sc2c1 (stereo unspecified) -1.61%, Cc1ccnc(NS(=O)(=O)c2ccc(NC(=O)c3cc(=O)c4ccc(C)c(C)c4o3)cc2)n1 -1.46%, COC(=O)c1ccc(CSc2nc3c([nH]c4ccccc43)c(=O)n2-c2cccc(OC)c2)o1 -8.73%, COc1ccc(-c2nc3ccccc3o2)cc1NC(=O)c1ccc(N2CCC(C)CC2)c([N+](=O)[O-])c1 -18%, COc1ccc(CNC(=O)c2cc3c(=O)n(Cc4cccs4)ccc3nc2C)cc1 -5.19%, CCOC(=O)c1sc(NC(=O)c2nc(SCC)ncc2Cl)c(C(=O)OCC)c1C -16.1%, CN(C)CCNC(=O)Cc1ccc(NC(=O)N2CCCCc3ccccc32)cc1 -4.41%, Cc1nn(Cc2ccccc2)c(C)c1NC(=O)c1cc(C(C)C)on1 -3.44%, Cc1ccc(C(=O)c2cn(Cc3ccc(F)cc3)c3nc(C)ccc3c2=O)cc1 -21.3%, COc1ccc(Cl)cc1NC(=O)c1c(C(=O)Nc2cccc(C)c2C)sc2nc(C)cc(=O)n12 2.68%, CCOC(=O)c1cc(-c2ccc(C)cc2)n(CC(=O)Nc2cccc(C(C)=O)c2)c1C -2.52%, COCCCn1c(=N)c(S(=O)(=O)c2ccccc2)cc2c(=O)n3cccc(C)c3nc21 -4.71%, CC1(C)CC(=O)c2cc(C(=O)Nc3ccc(Br)cc3)c(=O)n(-c3ccc(Cl)cc3)c2C1 -0.872%, COc1ccccc1N1CCN(C(=O)CCSCc2ccccc2F)CC1 2.73%, Cc1oc(-c2ccccc2F)nc1Cn1c(SCc2ccccc2F)nc2ccncc21 -6.66%, CCn1cc2nc(SCc3cc(C)ccc3C)n(Cc3ccc(C)cc3)c(=O)c2n1 2.24%, Cc1ccccc1OCc1nc2c3cnn(-c4ccccc4Br)c3ncn2n1 2.3%, COc1ccc(Nc2oc(/C=C/c3ccc(F)cc3)nc2C#N)cc1 -0.883%, Cc1ccc(C2c3cccn3CCN2S(=O)(=O)c2ccc([N+](=O)[O-])cc2)cc1 (stereo unspecified) 0.201%, O=S(=O)(NCCc1csc(-c2ccc(F)cc2)n1)c1ccc(F)cc1F -0.16%, COc1ccc(N2CC(NC(=O)c3cccs3)CC2=O)cc1OC (stereo unspecified) -5.36%, O=C(Nc1ccc(F)cc1)c1ccc(-n2cnnc2)cc1 -1.65%, CCc1ccc(-c2[nH]c3c(c2-c2c(-n4cccc4)n(C)c(=O)[nH]c2=O)c(=O)[nH]c(=O)n3C)cc1 0%, O=C(Nc1nnc(S(=O)(=O)N2CCCCC2)s1)c1ccc(Cl)cc1 -0.252%, CC(=O)Nc1ccc(NS(=O)(=O)c2ccc3c(c2)CCCN3C(C)=O)cc1 -6.17%, COc1ccc(-n2ncc(C(=O)Nc3ccc(C)cc3Cl)c2C2CCN(C(=O)OC(C)(C)C)CC2)cc1 -0.0346%, CCOc1ccc(-c2cn3c(n2)sc2cc(C(=O)NCCC4=CCCCC4)ccc23)cc1 1.73%, CCOc1ccc(NC(=O)CSc2nnc(CC)c(CC)n2)cc1 9.46%, CCN(CC)CCNC(=O)C1CCCN(c2nnc(C)c3c(C)n(-c4ccc(Cl)cc4)nc23)C1 (stereo unspecified) -0.0756%, Cc1cccc(C)c1NC(=O)C1CCCN(S(=O)(=O)c2c(C)noc2/C=C/N(C)C)C1 (stereo unspecified) -2.19%, COc1ccccc1CNC(=O)c1ccc(NC(=O)N2CC(C)Sc3ccccc32)cc1 (stereo unspecified) -8.61%, CCOC(=O)c1cc(-c2ccc(C)cc2)n(CCC(=O)NCc2ccccc2)c1C -8.19%, Cc1cccc(OCC(=O)Nc2ccc(C(=O)OCc3cc(=O)n4nc(C5CC5)sc4n3)cc2)c1 17%, COC(=O)c1ccc(NC(=O)CSc2ccc(-c3cccs3)nn2)cc1 -2.45%, Cc1ccc(-c2nc3scc(CCNS(=O)(=O)c4ccc(C)c(C)c4)n3n2)cc1 -4.26%, Cc1ccc(-c2noc(-c3cccnc3NCc3ccc(Cl)cc3)n2)cc1 -2.29%, O=C(NCCc1nc2ccccc2n1CCOc1ccc(Cl)cc1)C1CCCCC1 1.37%, CCc1ccc(NC(=O)C(Cc2ccccc2)NS(=O)(=O)c2ccc3c(c2)CCN3C(C)=O)cc1 (stereo unspecified) -13.4%, Cc1cc(C)c(NC(=O)c2cc(CN3CCOCC3)on2)c(C)c1 0%, COc1ccc2cc(S(=O)(=O)c3ccccc3F)c(=O)oc2c1 4.96%, C#CCOc1ccc(C2C(C(=O)OC)=C(C)NC3=C2C(=O)c2ccccc23)cc1OCC (stereo unspecified) -21.1%, CCOc1ccc(Sc2cc(C(=O)NCCCOC)c3ccccc3n2)cc1 8.45%, CN1CCN(C(=O)c2cnn(-c3cccc(F)c3)c2C2CCN(C(=O)OC(C)(C)C)CC2)CC1 5.87%, Cc1ccc(C)c(CSc2c(C(C)C)cnc3c2c(=O)n(C)c(=O)n3C)c1 -12.8%, Cc1csc2nc(COc3ccc(NC(=O)COc4ccc(F)cc4)cc3)cc(=O)n12 0.802%, COc1ccc(N2CCN(C(CNC(=O)c3ccc(C)cc3)c3ccc4c(c3)OCO4)CC2)cc1 (stereo unspecified) 0.258%, CC(C)c1ccc(CNc2nc(-c3ccco3)nn2S(=O)(=O)c2ccccc2)cc1 -19.6%, CCOc1ccccc1CNC(=O)c1nn(C)c2c1CS(=O)(=O)c1ccccc1-2 -4.12%, COc1ccc(NC(=O)c2sc3nc[nH]c(=O)c3c2C)cc1 -0.588%, Cc1ccc(-c2cc(C(=O)Oc3ccccc3)c3cccc(C)c3n2)cc1 -1.1%, COC(=O)c1cc(S(=O)(=O)N2CCN(c3ccc(C)cc3C)CC2)cn1C 1.47%, Cc1sc(-c2cc3ccccc3oc2=O)nc1-c1ccc(Cl)cc1 2.73%, O=C(CN1C(=O)COc2ccc(S(=O)(=O)N3CCCC3)cc21)N1CCN(c2ccccc2F)CC1 -11%, Cc1ccccc1-c1nc(CS(=O)CC(=O)NCCc2ccc(Cl)cc2)c(C)o1 (stereo unspecified) 0.907%, CC(C)Oc1ccc(CNC(=O)C2COc3ccccc3C2)cc1 (stereo unspecified) 0.394%, COc1ccc(-c2noc(-c3ccc(N4CCCCC4)c([N+](=O)[O-])c3)n2)cc1 1.21%, CCOC(=O)c1cnc2ccc(OCC)cc2c1N1CCN(c2cccc(Cl)c2)CC1 -21.2%, O=C1CN(C(=O)C2CCCCC2)C(c2ccccc2)c2cc(F)ccc2N1 (stereo unspecified) -1.5%, CCOc1ccc(C2c3c(oc4ccc(C)cc4c3=O)C(=O)N2c2nc(C)c(C)s2)cc1OC (stereo unspecified) -0.23%, COC(=O)c1ccccc1NC(=O)Nc1cccc(OCc2cc(=O)n3cccc(C)c3n2)c1 -5.17%, CCCCCCOc1ccc(-c2nc3ccc(Br)cc3c(=O)o2)cc1 -4%, Cc1ccc(CCNC(=O)CN2C(=O)COc3ccc(S(=O)(=O)N4CCC(C)CC4)cc32)cc1 -3.79%, CCN1CCN(C(c2cccc(Cl)c2)c2c(O)cc(C)n(CCOC)c2=O)CC1 (stereo unspecified) 2.49%, Cc1ccc(-c2nnc(SCC(=O)NCCC(C)C)nc2-c2ccc(C)cc2)cc1 -2.43%, CCn1cc(C(=O)NCCCN(CC(C)C)CC(C)C)c(=O)c2cc(S(=O)(=O)N3CCc4ccccc4C3)ccc21 -3.78%, COc1cccc(C2=NS(=O)(=O)N(C)C(C(=O)Nc3cccc(O)c3)=C2)c1 0.388%, COc1ccc(CC(=O)Nc2ccc(-c3nc4ccccc4s3)cc2Cl)cc1 0.659%, O=C(NCc1ccccc1)C(=O)NCC(c1ccco1)S(=O)(=O)c1ccccc1 (stereo unspecified) 2.56%, CCc1ccc(NC(=O)N(Cc2c[nH]c3ccccc23)C2CCCCCC2)cc1 -0.443%, Cc1cc2nn(-c3ccc(F)cc3)nc2cc1NC(=O)c1cc(Cl)ccc1Cl -8.21%, CCCN(CCC)c1nn2c(=O)c(C(=O)NCc3cccc(OC)c3)cnc2s1 -13.6%
